The source of these data is PubChem BioAssay AID1159614 (National Center for Advancing Translational Sciences (NCATS), 2016).

The campaign covered roughly 45,000 compounds. About 65 (0.1%) were called active. Calls follow the shape of the dose curve; as a rule, active = well fitted activation curve with a large enough effect; inconclusive = small, poorly fitted or top-dose-only effect; inactive = no such curve, though single readings can be large or run the other way. Some of the results follow.

This experiment concerns the target Galactocerebrosidase (Homo sapiens) (UniProt P54803). As to the kind of experiment: A Novel Cell-Based Assay to Identify Small Molecules for B -Galactocerebrosidase. Also: 0% is about no effect; nearly all actives have a fitted effect of over 65% in size. To be noted: 145M-Twi-hGALC-G270D cells (Twitcher mouse brain line with human GALC G270D), HMU-beta-Gal fluorescence, 48 h; series mostly up to 57.5 µM; activation: at the top concentration. The gist of the method: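 Live 145M-Twi cells (Twitcher mouse brain-derived, GALC-null) stably expressing human GALC-G270D, with a wild-type GALC line, were compound-treated. Residual GALC activity was then read as fluorescence from 0.1 mM final HMU-β-gal at pH 5.2; higher signal means activation.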
Sequence of UniProt P54803 (P54803 whole entry, looked up): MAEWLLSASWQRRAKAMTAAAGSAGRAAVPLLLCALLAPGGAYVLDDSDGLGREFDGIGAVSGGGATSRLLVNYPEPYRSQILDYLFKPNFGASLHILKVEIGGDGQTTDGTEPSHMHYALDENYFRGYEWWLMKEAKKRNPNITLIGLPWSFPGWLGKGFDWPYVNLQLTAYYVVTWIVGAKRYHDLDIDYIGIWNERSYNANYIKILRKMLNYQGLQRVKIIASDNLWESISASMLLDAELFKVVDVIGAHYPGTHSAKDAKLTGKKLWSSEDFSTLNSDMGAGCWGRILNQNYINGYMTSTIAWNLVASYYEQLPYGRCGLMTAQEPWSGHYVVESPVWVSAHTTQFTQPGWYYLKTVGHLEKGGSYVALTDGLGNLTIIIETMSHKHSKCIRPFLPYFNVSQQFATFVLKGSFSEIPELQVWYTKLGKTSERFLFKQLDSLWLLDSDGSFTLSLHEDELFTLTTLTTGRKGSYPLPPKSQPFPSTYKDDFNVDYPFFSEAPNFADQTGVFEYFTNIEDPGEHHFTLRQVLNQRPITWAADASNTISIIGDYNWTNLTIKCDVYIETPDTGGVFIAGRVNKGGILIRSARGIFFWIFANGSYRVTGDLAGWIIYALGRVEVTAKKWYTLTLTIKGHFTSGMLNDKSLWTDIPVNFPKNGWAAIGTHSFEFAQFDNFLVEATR
With `COc1ccc(N2CCN(C(CNC(=O)C(=O)NCc3ccc(C)cc3)c3cccnc3)CC2)cc1` (stereo not given), the “activation” value is inactive: -7.71%.
As to `Cc1cccc(NC(=O)CSc2nc3ccccc3c3nc(CCn4cncc4C)nn23)c1`, the “activation” value is inactive: -19.4%.
As to `O=c1cc2nc(-c3ccccc3)nc(SCc3cccc(Br)c3)n2[nH]1`, the “activation” value was inactive: -11.9%.
In the case of `CCN1CCN(C(=O)Cn2ncc3c4ccccc4n(Cc4ccccc4F)c3c2=O)CC1`, the “activation” value was inactive: -11.5%.
On to `O=C(CC(c1cccs1)N1Cc2ccccc2C1=O)Nc1ccccc1` (stereo not given), for which the “activation” value is inactive: -2.38%.
Regarding `COc1cccc(N2CCN(C(=O)c3cnc4c(C)cccn4c3=O)CC2)c1`, the “activation” value is inactive: 22.7%.
In the case of `Cc1cccc(N2CCN(C(c3ccc(F)cc3)c3nnc(-c4ccccc4)o3)CC2)c1C` (stereo not given), the “activation” value is inactive: -17.7%.
For the compound `CCCCN(CCCC)C(=O)c1cc2c(=O)n3ccccc3nc2s1`, the “activation” value is inactive: -25.8%.
In the case of `Cc1ccc(Cl)cc1N1CCN(C(=O)C(C)n2ncn3cccc3c2=O)CC1` (stereo not given), the “activation” value was inactive: 8.6%.
Regarding `Cc1cccc(N2CCN(S(=O)(=O)c3ccc(F)c(C(=O)Nc4cccc(Cl)c4C)c3)CC2C)c1` (stereo not given), the “activation” value is inactive: -15.1%.
Under `CCNC(=O)c1c(NC(=O)c2cc(=O)c3ccc(C)c(C)c3o2)sc2c1CCCC2` stands inactive: -9.32%; under `Cc1ccc(-n2nc3c(=O)n(CCCC(=O)NCc4ccc(F)cc4)nc(C)c3c2C)cc1`, inactive: -17.2%; under `Cc1cc(C)c(S(=O)(=O)NCC(c2ccco2)N2CCN(c3ccccc3)CC2)c(C)c1` (stereo not given), inactive: -1.67%.
With `Cc1ccc2c(c1)-c1onc(C(=O)N3CCN(c4cccc(C)c4C)CC3)c1CO2` the figure was inactive: -6.43%.
As for `O=C(CN1CCN(Cc2ccc(F)cc2)C1=O)NCc1ccccc1`, the “activation” value is inactive: -2.77%.
With `Cc1cc(C(F)(F)F)c2c(N)c(C(=O)Nc3c(Cl)cccc3Cl)sc2n1`, the “activation” value is inactive: -14.4%.
As for `COc1ccc(Nc2ncnc3c2cnn3C)c(OC)c1`, the “activation” value was inactive: -5.19%.
With `Cc1nn(-c2ccccc2)c2c1cc1c(=O)[nH]c(=O)nc-1n2-c1cccc(C(F)(F)F)c1` the figure was inactive: 0.138%.
With `O=C(NCCSc1c(-c2ccc(Cl)cc2)[nH]c2ccccc12)c1ccc(S(=O)(=O)N2CCOCC2)cc1`, the “activation” value was inactive: -14%.
With `Cc1ccc(S(=O)(=O)c2nc(-c3ccccc3)oc2N2CCCCCC2)cc1` the figure was inactive: -41.2%.
With `Cc1cccc(OCC(=O)N(Cc2cccc(Cl)c2)Cc2ccco2)c1C` the figure was inactive: -12%.
As for `CC(C)S(=O)(=O)c1oc(-c2ccc(F)cc2)nc1S(=O)(=O)c1ccc(F)cc1`, the “activation” value was inactive: -20%.
With `COc1ccc2cc(-c3cn4c(n3)sc3cc(F)ccc34)c(=O)oc2c1` the figure was inactive: -7.76%; with `Cc1ccccc1CSc1nc(-c2ccccc2)nc2c1Cc1c(CO)cnc(C)c1O2`, inactive: -9.17%.
Turning to `COc1cccc(C(=O)NCC(c2ccc(N(C)C)cc2)N2CCOCC2)c1OC` (stereo not given), the “activation” value was inactive: -27.3%.
With `COc1ccc(/C=C/c2onc(C)c2S(=O)(=O)N2CCC(C(=O)N3CCC(C)CC3)CC2)cc1`, the “activation” value is inactive: -24.7%.
`COc1cccc(C2=NN(C(C)=O)C(c3cn(-c4ccccc4)nc3-c3cccs3)C2)c1` (stereo not given): the “activation” value is inactive: -10.1%.
Consider `CCCCNC(=O)CCn1c(=O)c2ccccc2n(Cc2cc(C)ccc2C)c1=O`, for which the “activation” value was inactive: -6.98%.
Turning to `CCOc1ccc(CCNC(=O)CCc2cn(Cc3ccc(C)cc3)c3ccccc23)cc1`, the “activation” value was inactive: -7.96%.
On to `CC1CCN(S(=O)(=O)c2ccc3c(c2)N(CC(=O)N2CCN(c4ccc(Cl)cc4)CC2)C(=O)CO3)CC1`, for which the “activation” value was inactive: -3.78%.
Under `CC(C)CCNC(=O)N1CCN(S(=O)(=O)c2ccc3c(ccn3C)c2)CC1` stands inactive: -12%; under `CCOC(=O)c1c(S(=O)(=O)N2CCCC(C(=O)Nc3cc(C)ccc3OC)C2)c(C)n(C)c1C` (stereo not given), inactive: -14%; under `COc1ccc2[nH]cc(CCNC(=O)Nc3ccc(F)cc3)c2c1`, inactive: -24.6%.
As for `Cc1ccc(C)c(N2CCN(C(=O)c3cc(S(=O)(=O)N4CCCCC4)cn3C)CC2)c1`, the “activation” value is inactive: -6.08%.
Under `O=C(c1ccc(CSc2nc3ccncc3n2Cc2ccccc2F)cc1)N1CCCCCC1` stands inactive: -43.8%.
As to `CCCC(=O)Nc1nnc(SCc2cc(=O)c3cc(C)ccc3[nH]2)s1`, the “activation” value was inactive: -11.1%.
Under `CC(C[N+](C)(C)C)OC(N)=O` (stereo not given) stands inactive: -11.6%.
With `CCc1ccccc1N1CC(c2nc3ccccc3n2CC(C)C)CC1=O` (stereo not given), the “activation” value is inactive: -24.3%.
With `CCC(C)NC(=O)C1CCN(C(=O)c2cc3sccc3n2Cc2ccc(Cl)cc2)CC1` (stereo not given) the figure was inactive: -0.0666%; with `Cc1ccc(C)c(S(=O)(=O)c2nnn3c2nc(N2CCCC2)c2sccc23)c1`, inactive: -14.4%.
With `COc1ccc(Nc2oc(-c3ccc(COc4ccc(OC)cc4)o3)nc2C#N)cc1` the figure was inactive: -24.3%; with `O=C(Cn1ncc2c3ccccc3n(Cc3ccc(Cl)cc3)c2c1=O)NCCCc1ccccc1`, inactive: -11.9%.
For `CC(C)c1ccc(Nc2cc(C(=O)NCCc3ccccc3)c3ccccc3n2)cc1`, the “activation” value is inactive: -9.54%.
In the case of `CC(=O)Nc1ccc(-n2cc3c(c2-c2ccc(C)cc2)c(=O)n(C)c(=O)n3C)cc1`, the “activation” value was inactive: -16%.
With `Cc1oc(-c2ccc(C(=O)Nc3ccc(F)cc3F)cc2)nc1COc1ccccc1`, the “activation” value was inactive: -9.31%.
Consider `CCC(=O)Nc1ccccc1-c1nc2ccccc2n(C(CC)C(=O)Nc2cccc(C(C)=O)c2)c1=O` (stereo not given), for which the “activation” value was inactive: -6.43%.
On to `CCCCN(CC)CCCn1cnc2c([nH]c3ccc(Cl)cc32)c1=O`, for which the “activation” value is inactive: 1.4%.
As to `CC(C)(C)C1CCc2nc(NC(=O)COc3ccc(F)cc3)sc2C1` (stereo not given), the “activation” value was inactive: -17.4%.
In the case of `Cn1cc(C(=O)O)c(=O)c2cc(S(=O)(=O)N3CCCCC3)ccc21`, the “activation” value is inactive: -17.7%.
On to `Cc1ccc(CN2C(=O)c3ccccc3S(=O)(=O)c3ccc(C(=O)OCC4CCCO4)cc32)cc1` (stereo not given), for which the “activation” value is inactive: -4.55%.
For `Cc1ccc(NC(=O)C(Cc2ccccc2)NS(=O)(=O)c2ccc3c(c2)c(=O)n(C)c(=O)n3C)cc1` (stereo not given), the “activation” value was inactive: -13.4%.
As to `CCN(C(=O)c1cc(S(=O)(=O)N2CCOCC2)cn1C)c1ccc(OC)cc1`, the “activation” value is inactive: -8.78%.
With `CCOc1nc(NC(=O)NS(=O)(=O)Oc2ccc(Cl)cc2)nc(-c2ccccc2)n1`, the “activation” value is inactive: -13%.
As for `CCCC(=O)Oc1c(Sc2ccc(Cl)cc2)c(C)nn1-c1ccccc1`, the “activation” value is inactive: -25.7%.
On to `Cn1c(SCC(=O)Nc2ccc(F)cc2)nc2c([nH]c3ccccc32)c1=O`, for which the “activation” value was inactive: 17.3%.
Consider `COc1cccc(-c2cc(C(=O)NCc3ccccc3)[nH]n2)c1`, for which the “activation” value was inactive: -11.6%.
On to `CN(C)C(=O)c1ccc2c(c1)N(CC(=O)NCc1ccc(F)cc1)C(=O)C1CCCCN21` (stereo not given), for which the “activation” value is inactive: -14.1%.
With `CC(=O)c1ccc(NC(=O)Cn2c(-n3nc(C)cc3C)nc(C)cc2=O)cc1`, the “activation” value is inactive: -13.1%.
Turning to `COc1ccc(CCNC(=O)CCn2c(=O)c3ccccc3n(CC(=O)Nc3cccc(C)c3)c2=O)cc1OC`, the “activation” value is inactive: -10.7%.
With `COc1cc(OC)cc(-c2nnc(SCC(=O)N3CCC(C)CC3)o2)c1`, the “activation” value was inactive: -10.1%.
Turning to `Cc1cc(C(C#N)c2ccc(Cl)cc2)c(Cl)cc1NC(=O)c1cc(I)cc(I)c1O` (stereo not given), the “activation” value was inactive: -20.4%.
As to `Cc1ccc2c(c1)cc1c(=O)n(CC(=O)NCc3ccco3)nc(C)n12`, the “activation” value is inactive: -17%.
Consider `COc1ccc(OC)c(C2C(C(N)=O)=C(C)Nc3nc(-c4cccc(Cl)c4)nn32)c1` (stereo not given), for which the “activation” value is inactive: -15.3%.
Turning to `Cc1cccn2c(=O)c3cc(C(=O)NCCc4ccc(S(N)(=O)=O)cc4)n(C)c3nc12`, the “activation” value is inactive: -2.12%.
For the compound `CC(C)(C)c1ccc(OCC(=O)N(Cc2ccco2)Cc2ccccc2F)cc1`, the “activation” value was inactive: -12%.
Turning to `COc1ccc(Nc2ncc(C(=O)Nc3cc(C)ccc3OC)c3ccccc23)cc1`, the “activation” value is inactive: -0.865%.
For the compound `Cc1ccc(-n2nc(C)c3c(C)cc(=O)n(CC(=O)NCc4ccc(OC(C)C)cc4)c32)cc1`, the “activation” value is inactive: 9.12%.
In the case of `O=C(COc1ccc(F)cc1)Nc1cccc(OCc2cc(=O)n3ccccc3n2)c1`, the “activation” value was inactive: -15.1%.
On to `COc1ccc(F)cc1NC(=O)C1CCN(c2nc(-c3ccc(OC)c(OC)c3)no2)CC1`, for which the “activation” value was inactive: -9.95%.
Regarding `FC(F)(F)c1ccc(C2=Nc3ccccc3NC(c3cccs3)=N2)cc1`, the “activation” value was inactive: -6.64%.
As for `Cc1ccc(NC(=O)c2ccc(=O)n(CC(=O)Nc3cc(C)cc(C)c3)n2)cc1`, the “activation” value was inactive: -5.88%.
Under `COc1ccc(-c2noc(C(C)NC(=O)c3ccco3)n2)cc1` (stereo not given) stands inactive: -32.3%; under `Cc1ccc(OCC(=O)Nc2c(Cl)ccc3nsnc23)cc1C`, inactive: -31.4%; under `Cc1cccc2c1-c1sc(C(=O)NCCCN3CCN(c4cccc(Cl)c4)CC3)cc1CO2`, inactive: -8.74%.
Under `Fc1ccc(-n2ncc3c(Nc4ccc(Oc5ccccc5)cc4)ncnc32)cc1` stands inactive: -8.26%; under `COc1ccc(NC(=O)CCc2c(C)nc3c(-c4ccccc4)c(C)nn3c2C)cc1Cl`, inactive: -37.5%.
As for `Cc1ccc2c(c1)c1c(c(=O)n(-c3ccccc3C)c(=O)n1Cc1ccccc1F)n2C`, the “activation” value is inactive: -6.72%.
With `Cn1c(C(=O)NCc2ccc(Cl)cc2)cc2c(=O)n(C)c3ccccc3c21` the figure was inactive: 0.552%; with `Cc1ccc(Cl)cc1NC(=O)Cn1c(=O)oc2cc(S(=O)(=O)N3CCCCCC3)ccc21`, inactive: -14.9%.
For `CC(=O)c1cccc(Nc2c3c(nc4nc(-c5cccs5)nn24)CCCC3)c1`, the “activation” value is inactive: -6.8%.
For `CC(=O)Nc1cccc(-c2nnc(SCC(=O)c3cc([N+](=O)[O-])ccc3Br)o2)c1`, the “activation” value is inactive: -5.36%.
With `COc1cc(C(c2c(C)[nH][nH]c2=O)c2c(C)[nH][nH]c2=O)ccc1OC(=O)c1ccccc1F` the figure was inactive: -15.6%.
Under `Cc1ccc(CNC(=O)C2CCN(c3nc4ccc(C)cc4[nH]3)CC2)cc1` stands inactive: -16.3%; under `COC(=O)c1ccc2oc(=O)c(S(=O)(=O)c3ccc(C)cc3)cc2c1`, inactive: -5.42%.
As for `CCCC(=O)Nc1cccc(-c2nc3cc(C)c(C)cc3o2)c1C`, the “activation” value is inactive: -8.62%.
With `CC(=O)Nc1ccc(NC(=O)CSc2nnc3c4cc(Br)ccc4n(C)c3n2)cc1`, the “activation” value is inactive: -36.5%.
As for `COc1ccc(CNC(=O)c2ccc(Sc3ccc(Cl)cc3)c(NC(C)=O)c2)c(OC)c1`, the “activation” value is inactive: -6.75%.
Turning to `Cc1ccc2c(c1)c1c(c(=O)n(-c3cccc(Cl)c3)c(=O)n1C)n2C`, the “activation” value is inactive: -5.47%.
For `CCSc1ncc(Cl)c(C(=O)Nc2sc(C(C)=O)c(C)c2C(=O)OC)n1`, the “activation” value is inactive: -15.6%.
With `COc1cc(OC)c(NC(=O)c2cnc(N3CCCC3)nc2C)cc1Cl` the figure was inactive: -13.1%; with `CCc1cccc(NC(=O)c2c(C)oc3ncnc(N4CCCCC4)c23)c1`, inactive: -21.5%; with `CCOC(=O)c1c(NC(=O)c2cc3nc(-c4ccc(OC)cc4)cc(C(F)(F)F)n3n2)sc(C)c1C`, inactive: -5.44%.
Under `COc1ccc(C(=O)c2oc3ccccc3c2NC(=O)c2nc(SC)ncc2Cl)cc1Cl` stands inactive: -13.5%; under `O=C1CN(C(=O)COc2ccc(Cl)cc2Cl)C(c2ccc(F)cc2)c2cc(F)ccc2N1` (stereo not given), inactive: -15.6%; under `CCN(CC)C(=O)CSc1nnc2[nH]c(=O)cc(C)n12`, inactive: -21.4%.
